Test results reported in the CheMixHub viscosity set.
Further values from the same series stand in other lists.

Assay: xn = mol fraction of the nth substance listed

OC[C@H]1O[C@@](CO)(O[C@H]2O[C@H](CO)[C@@H](O)[C@H](O)[C@H]2O)[C@@H](O)[C@@H]1O + O
Details	viscosity [mPa·s]
293.15 K, 100 kPa, x1 = 0.0005	1.03
293.15 K, 100 kPa, x1 = 0.013	1.95
293.15 K, 100 kPa, x1 = 0.034	6.17
293.15 K, 100 kPa, x1 = 0.05	15.54
293.15 K, 100 kPa, x1 = 0.073	58.08
293.15 K, 100 kPa, x1 = 0.09552	210
293.15 K, 101 kPa, x1 = 0.003	1.15
293.15 K, 101 kPa, x1 = 0.0058	1.309
293.15 K, 101.3 kPa, x1 = 0.002	1.095
298.15 K, 100 kPa, x1 = 0.09854	180
298.15 K, 101 kPa, x1 = 0.0009	0.93
298.15 K, 101 kPa, x1 = 0.001798	0.974
298.15 K, 101 kPa, x1 = 0.004484	1.114
298.15 K, 101 kPa, x1 = 0.005375	1.166
298.15 K, 101 kPa, x1 = 0.0058	1.161
298.15 K, 101 kPa, x1 = 0.008924	1.379
298.15 K, 101 kPa, x1 = 0.01799	2.182
298.15 K, 101 kPa, x1 = 0.02617	3.38
298.15 K, 101 kPa, x1 = 0.03453	5.37
298.15 K, 101 kPa, x1 = 0.04325	8.536
298.15 K, 101 kPa, x1 = 0.04968	12.23
298.15 K, 101 kPa, x1 = 0.06024	21.59
298.15 K, 101.3 kPa, x1 = 0.002	0.971
298.15 K, 101.32 kPa, x1 = 0.013	1.705
298.15 K, 101.32 kPa, x1 = 0.022	2.745
298.15 K, 101.32 kPa, x1 = 0.034	5.187
298.15 K, 101.33 kPa, x1 = 0.007154	1.271
298.15 K, 101.33 kPa, x1 = 0.01069	1.523
298.15 K, 101.33 kPa, x1 = 0.01421	1.826
298.15 K, 101.33 kPa, x1 = 0.0177	2.196
303.15 K, 100 kPa, x1 = 0.0224	2.397
303.15 K, 100 kPa, x1 = 0.102	160
303.15 K, 101 kPa, x1 = 0.003	0.9135
303.15 K, 101 kPa, x1 = 0.0058	1.037
303.15 K, 101.3 kPa, x1 = 0.002	0.87
308.15 K, 100 kPa, x1 = 0.02	2.075
308.15 K, 100 kPa, x1 = 0.0224	2.096
308.15 K, 100 kPa, x1 = 0.1058	140
308.15 K, 101 kPa, x1 = 0.003	0.8236
308.15 K, 101 kPa, x1 = 0.0058	0.9316
308.15 K, 101.3 kPa, x1 = 0.002	0.783
313.15 K, 100 kPa, x1 = 0.05	6.97
313.15 K, 100 kPa, x1 = 0.1102	120
313.15 K, 101 kPa, x1 = 0.003	0.749
313.15 K, 101 kPa, x1 = 0.0058	0.8435
313.15 K, 101.3 kPa, x1 = 0.002	0.711
318.15 K, 100 kPa, x1 = 0.115	110
318.15 K, 101 kPa, x1 = 0.003	0.6852
318.15 K, 101 kPa, x1 = 0.0058	0.7705
318.15 K, 101.3 kPa, x1 = 0.002	0.649
323.15 K, 100 kPa, x1 = 0.1204	100

[Cl-].[K+] + O
Details	viscosity [mPa·s]
298.15 K, 101.33 kPa, x1 = 0.07931	1
310.15 K, 101 kPa, x1 = 0.000189	0.6944
310.15 K, 101 kPa, x1 = 0.000938	0.6985
310.15 K, 101 kPa, x1 = 0.001929	0.7025
310.15 K, 101 kPa, x1 = 0.002695	0.7062
310.15 K, 101 kPa, x1 = 0.003679	0.7108
310.15 K, 101 kPa, x1 = 0.005197	0.7179
310.15 K, 101 kPa, x1 = 0.005988	0.7215
313.15 K, 101 kPa, x1 = 0.0468	0.7029
313.15 K, 101 kPa, x1 = 0.05806	0.721
313.15 K, 101 kPa, x1 = 0.06612	0.7358
313.15 K, 101 kPa, x1 = 0.07583	0.755
323.15 K, 101 kPa, x1 = 0.02711	0.5781
323.15 K, 101 kPa, x1 = 0.0468	0.6057
323.15 K, 101 kPa, x1 = 0.05806	0.6243
323.15 K, 101 kPa, x1 = 0.06612	0.6388
323.15 K, 101 kPa, x1 = 0.07583	0.6576
